Experiments:
[1] = s9, 1.5 h

Row | SMILES | time to 50% loss in monkey S9 | % intact compound remaining, monkey S9 (s9, 1.5 h) | % of initial compound remaining, human and guinea pig liver S9 [1]
1 | CCCCCCCCCCCCCCCCOCCCOP(=O)(O)CO[C@H](CO)Cn1ccc(N)nc1=O [HDP-CDV, hexadecyloxypropyl-cidofovir] | 20 min | 4-16% | 83-97%
2 | Nc1ccn(C[C@@H](CO)OCP(=O)(O)OCCCOCCCCCCCCCCCCCCC2CC2)c(=O)n1 [14-cp-TDP-CDV, 14-cyclopropyl-tetradecyloxypropyl-cidofovir] | 45 to 70 min | – | –
3 | CC(C)CCCCCCCCCCCCCCOCCCOP(=O)(O)CO[C@H](CO)Cn1ccc(N)nc1=O [Compound 15M-HDP-CDV, 15-methyl-hexadecyloxypropyl-cidofovir] | 45 to 70 min | – | –

— publication PMC3104040 (Bioorganic & medicinal chemistry, 2011)
